The source of these data is publication PMC6919601, “Identification of Plasmodium dipeptidyl aminopeptidase allosteric inhibitors by high throughput screening” (PLoS ONE, 2019).

In all, about 110,000 compounds went through this assay and about 230 (0.21%) showed an effect of 50% or more. The list shows a part of the results.
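Also: 30 min substrate incubation versus DMSO and 10 µM JCP410 controls.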

Chain of DPAP1 (Q8IIJ9 whole entry, looked up): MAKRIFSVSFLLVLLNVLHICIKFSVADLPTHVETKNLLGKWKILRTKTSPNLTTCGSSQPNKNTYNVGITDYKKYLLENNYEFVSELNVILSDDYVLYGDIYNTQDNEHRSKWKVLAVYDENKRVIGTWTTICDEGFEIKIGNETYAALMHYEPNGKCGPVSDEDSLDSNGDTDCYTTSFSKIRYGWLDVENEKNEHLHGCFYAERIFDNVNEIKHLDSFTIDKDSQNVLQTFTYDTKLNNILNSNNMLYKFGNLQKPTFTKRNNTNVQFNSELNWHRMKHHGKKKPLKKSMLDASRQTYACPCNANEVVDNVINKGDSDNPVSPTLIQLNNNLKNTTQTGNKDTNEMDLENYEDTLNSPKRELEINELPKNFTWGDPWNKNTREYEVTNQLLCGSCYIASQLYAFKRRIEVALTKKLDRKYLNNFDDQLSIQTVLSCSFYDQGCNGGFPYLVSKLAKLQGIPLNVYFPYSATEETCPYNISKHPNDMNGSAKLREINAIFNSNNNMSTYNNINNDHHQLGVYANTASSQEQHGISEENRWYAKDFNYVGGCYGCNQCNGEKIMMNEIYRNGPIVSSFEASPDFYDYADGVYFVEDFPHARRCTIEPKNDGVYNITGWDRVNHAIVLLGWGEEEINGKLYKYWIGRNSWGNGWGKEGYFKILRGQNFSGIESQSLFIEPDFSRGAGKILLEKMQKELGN

This assay concerns the target DPAP1 (Plasmodium falciparum, UniProt Q8IIJ9). The experiment in a line: primary screen, percent inhibition; read by cleavage of a fluorogenic dipeptide substrate; higher = more effect of the substance. Set-up: species or system P. falciparum D10 trophozoite lysates; single well.
Turning to `CCC(C)NC(=O)c1cc(-c2ccccc2O)on1` (centres unmarked), the “% Inhibition @ 10 uM” value is reported as -0.591%.

For the molecule `CCC1CCCCN1C(=O)C1=C(C)C(=O)OC12CCC(C)CC2` (centres unmarked), the “% Inhibition @ 10 uM” value came out at 1.55%.

Regarding `CCCc1nnc(NC(=O)c2nc(SCc3ccc(F)cc3)ncc2Cl)s1`, the “% Inhibition @ 10 uM” value came out at 2.41%.

As to `Cc1sc(NC(=O)c2ccco2)c(C(c2ccccn2)N2CCCCC2)c1C` (centres unmarked), the “% Inhibition @ 10 uM” value worked out at 0.145%.

Consider `COc1ccc(NC(c2ccccc2)c2ccncc2)cc1` (centres unmarked), for which the “% Inhibition @ 10 uM” value is on record as 0.986%.

`Cc1ccc(NC(=O)C2c3ccccc3Oc3ccccc32)nc1`: the “% Inhibition @ 10 uM” value is given as -0.142%.

As for `O=C(CCC1CCCC1)Nc1cccnc1`, the “% Inhibition @ 10 uM” value was -2.65%.

Turning to `CN1C(=O)c2ccccc2C(C(=O)NCCCN2CCc3ccccc3C2)C1c1cccs1` (centres unmarked), the “% Inhibition @ 10 uM” value was -5.42%.

Turning to `Cc1cccc(C(=O)NCc2nc3ccccc3n2Cc2ccccc2)c1`, the “% Inhibition @ 10 uM” value is given as -0.551%.

On to `O=C(Cn1nc(-c2ccccc2)ccc1=O)NCc1ccc(F)cc1`, for which the “% Inhibition @ 10 uM” value is reported as -6.75%.

On to `Cc1ccc(C)c(Cn2c(C)c(CNCc3ccc(Cl)cc3)c(C(=O)O)c2C)c1`, for which the “% Inhibition @ 10 uM” value is given as -1.92%.

With `CC(C)CC(C(=O)NCC#N)c1cccc(-c2ccc(S(=O)(=O)NCCN(CCO)CCO)cc2)c1` (centres unmarked), the “% Inhibition @ 10 uM” value is -1.41%.

For the molecule `CCOC(=O)c1[nH]c2ccc(C)cc2c1N`, the “% Inhibition @ 10 uM” value is on record as -0.13%.

With `CCc1ccc(CC)c(S(=O)(=O)Nc2ccc(O)c(C(=O)O)c2)c1`, the “% Inhibition @ 10 uM” value is -0.123%.

As for `CC(=O)N1CCC(N(C(=O)NC2CCCC2)C(C)C)CC1`, the “% Inhibition @ 10 uM” value was -4.68%.

On to `CC(C)N(Cc1ccccc1)C(=S)Nc1cccnc1`, for which the “% Inhibition @ 10 uM” value was -4.49%.

Regarding `CO/C(O)=C1\C(C)=NC2=C(C(=O)CCC2)C1c1cc2c(cc1Br)OCO2` (centres unmarked), the “% Inhibition @ 10 uM” value is given as -4.77%.

With `CC(NCc1ccccc1)c1ccco1` (centres unmarked), the “% Inhibition @ 10 uM” value is -5.07%.

For the molecule `Cc1ccc(CNC(=O)N2CC=C(c3c[nH]c4ccccc34)CC2)cc1`, the “% Inhibition @ 10 uM” value came to 4.92%.

With `CCOC(=O)c1nnn(-c2nc(OCC)nc(N3CCOCC3)n2)c1C`, the “% Inhibition @ 10 uM” value was -1.24%.

With `COc1ccc2oc(=O)c(C(=O)Nc3ccccc3)cc2c1`, the “% Inhibition @ 10 uM” value is reported as 1.35%.

With `COC(=O)c1c(NS(=O)(=O)Cc2ccccc2)sc2c1CCCC2`, the “% Inhibition @ 10 uM” value is reported as -1.7%.

Regarding `COc1ccccc1CN1CC(C(=O)O)CC1=O` (centres unmarked), the “% Inhibition @ 10 uM” value is recorded as -3.12%.

Turning to `CSc1cccc(-n2nnc(C(N)=O)c2C)c1`, the “% Inhibition @ 10 uM” value was 3.92%.

`Cc1ccc(Oc2cc(-n3ncc(C#N)c3N)nc(-c3ccccc3)n2)cc1`: the “% Inhibition @ 10 uM” value was -2.68%.

With `CCCCN(C)C(=O)C1c2ccccc2C(=O)N(C)C1c1cn(C)c2ccccc12` (centres unmarked), the “% Inhibition @ 10 uM” value was -7.27%.

`c1ccc(C2CC(c3cccs3)n3ncnc3N2)cc1` (centres unmarked): the “% Inhibition @ 10 uM” value was 3.72%.

As to `COc1ccc(OC)c(S(=O)(=O)N2Cc3ccccc3CC2C(=O)O)c1` (centres unmarked), the “% Inhibition @ 10 uM” value is listed as -4.49%.

On to `O=S(=O)(c1ccc(CCn2cnnn2)cc1)N1CCOCC1`, for which the “% Inhibition @ 10 uM” value is reported as -4.49%.

Take `CCCOc1ccc(C2C3=C(O)CCCC3=NC(C)=C2C(=O)Nc2ccccc2C)cc1` (centres unmarked): the “% Inhibition @ 10 uM” value is 7.05%.

With `CCC(CC)C(=O)/N=C1\SC2CS(=O)(=O)CC2N1Cc1ccc(Cl)cc1` (centres unmarked), the “% Inhibition @ 10 uM” value is recorded as -2.92%.

On to `CCOc1ccc(C2CC(=O)N3CN(C4CCCCC4)CSC3=C2C#N)cc1` (centres unmarked), for which the “% Inhibition @ 10 uM” value is recorded as 46.6%.

With `Cc1ccccc1N1CCN(C(=O)c2ccccc2NC(=O)c2ccccc2C(=O)O)CC1`, the “% Inhibition @ 10 uM” value was found to be 1.39%.

For the molecule `CC1=C(C(=O)OCc2ccccc2)C(c2cccc(F)c2)NC(=O)N1` (centres unmarked), the “% Inhibition @ 10 uM” value amounted to 1.38%.

`Cc1csc(NC(=O)C(=O)c2c[nH]c3ccccc23)n1`: the “% Inhibition @ 10 uM” value is given as -6.59%.

As for `COc1ccc(Br)cc1CNC(=O)Cn1nc(C)n2cccc2c1=O`, the “% Inhibition @ 10 uM” value is -0.875%.

As to `COc1ccc(CCN2C(=O)CC(NCCc3ccc(S(N)(=O)=O)cc3)C2=O)cc1OC` (centres unmarked), the “% Inhibition @ 10 uM” value was -6.04%.

For the molecule `CC(NC(=O)Cn1cc2c(n1)CCCCC2)c1ccccc1` (centres unmarked), the “% Inhibition @ 10 uM” value is 1.8%.

On to `CCC(=O)N1C2=C(CCCC2)C(=O)NC12CCCCC2`, for which the “% Inhibition @ 10 uM” value came out at 7.95%.

Turning to `CCCCC12CN3CC(C)(CN(C1)C3c1ccc3c(c1)OCO3)C2=O` (centres unmarked), the “% Inhibition @ 10 uM” value was determined as 3.27%.

Take `CCCCCCOC(=O)Nc1nnc(CCC)s1`: the “% Inhibition @ 10 uM” value worked out at 2.76%.

Take `Cc1nnc(N2CCN(C(=O)NCCc3ccccc3)CC2)c2nn(-c3ccccc3)c(C)c12`: the “% Inhibition @ 10 uM” value is listed as 9.62%.

On to `O=C(NCc1ccco1)c1cnn(-c2ccc(F)cc2)c1-n1cccc1`, for which the “% Inhibition @ 10 uM” value was -1.95%.

As for `CN1/C(=C/C(=O)c2ccco2)Sc2ccccc21`, the “% Inhibition @ 10 uM” value was -1.29%.

Regarding `CCCOc1cccc(C2C(C(=O)c3ccc(F)cc3)=C(O)C(=O)N2Cc2ccco2)c1` (centres unmarked), the “% Inhibition @ 10 uM” value is -0.766%.

As to `O=C(c1ccccc1C(=O)N1CCc2ccccc21)N1CCc2ccccc21`, the “% Inhibition @ 10 uM” value came out at 0.389%.

As to `O=C(NCc1ccc2c(c1)OCO2)C1CCCN1S(=O)(=O)c1cccc2nsnc12` (centres unmarked), the “% Inhibition @ 10 uM” value is given as 1.26%.

Regarding `CC(=O)c1cccc(NC(=O)C2C3CCC(C3=C(C)C)C2C(=O)O)c1` (centres unmarked), the “% Inhibition @ 10 uM” value is -3.63%.

For the molecule `CC(=O)Nc1c(C(=O)N2CCN(Cc3ccccc3)CC2)cnn1-c1ccccc1Cl`, the “% Inhibition @ 10 uM” value is given as -4.86%.

For `COc1ccccc1/C=C1\SC(Nc2ccc(F)cc2)=NC1=O`, the “% Inhibition @ 10 uM” value was 1.72%.
